Screen size: about 360,000 compounds; about 16,000 (4.4%) were called active. The inconclusive results got no clear call from the source; some entries with a clear call stand among them for comparison. Calls come from the whole dose curve; as a rule, active = well fitted inhibition curve with a large enough effect; inconclusive = small, poorly fitted or top-dose-only effect; inactive = no such curve, though single readings can be large or run the other way. A potency beside an inconclusive call is a rough fit, not a confirmed value.
target: Bromodomain adjacent to zinc finger domain protein 2B (Homo sapiens) (UniProt Q9UIF8); test: qHTS Assay for Inhibitors of BAZ2B; details: AlphaScreen BAZ2B-H3K14Ac peptide displacement; series mostly up to 114 µM; note: nearly all actives have a fitted effect of over 60% in size
UniProt Q9UIF8, sequence (Q9UIF8 whole entry, looked up, the tested form may be a part): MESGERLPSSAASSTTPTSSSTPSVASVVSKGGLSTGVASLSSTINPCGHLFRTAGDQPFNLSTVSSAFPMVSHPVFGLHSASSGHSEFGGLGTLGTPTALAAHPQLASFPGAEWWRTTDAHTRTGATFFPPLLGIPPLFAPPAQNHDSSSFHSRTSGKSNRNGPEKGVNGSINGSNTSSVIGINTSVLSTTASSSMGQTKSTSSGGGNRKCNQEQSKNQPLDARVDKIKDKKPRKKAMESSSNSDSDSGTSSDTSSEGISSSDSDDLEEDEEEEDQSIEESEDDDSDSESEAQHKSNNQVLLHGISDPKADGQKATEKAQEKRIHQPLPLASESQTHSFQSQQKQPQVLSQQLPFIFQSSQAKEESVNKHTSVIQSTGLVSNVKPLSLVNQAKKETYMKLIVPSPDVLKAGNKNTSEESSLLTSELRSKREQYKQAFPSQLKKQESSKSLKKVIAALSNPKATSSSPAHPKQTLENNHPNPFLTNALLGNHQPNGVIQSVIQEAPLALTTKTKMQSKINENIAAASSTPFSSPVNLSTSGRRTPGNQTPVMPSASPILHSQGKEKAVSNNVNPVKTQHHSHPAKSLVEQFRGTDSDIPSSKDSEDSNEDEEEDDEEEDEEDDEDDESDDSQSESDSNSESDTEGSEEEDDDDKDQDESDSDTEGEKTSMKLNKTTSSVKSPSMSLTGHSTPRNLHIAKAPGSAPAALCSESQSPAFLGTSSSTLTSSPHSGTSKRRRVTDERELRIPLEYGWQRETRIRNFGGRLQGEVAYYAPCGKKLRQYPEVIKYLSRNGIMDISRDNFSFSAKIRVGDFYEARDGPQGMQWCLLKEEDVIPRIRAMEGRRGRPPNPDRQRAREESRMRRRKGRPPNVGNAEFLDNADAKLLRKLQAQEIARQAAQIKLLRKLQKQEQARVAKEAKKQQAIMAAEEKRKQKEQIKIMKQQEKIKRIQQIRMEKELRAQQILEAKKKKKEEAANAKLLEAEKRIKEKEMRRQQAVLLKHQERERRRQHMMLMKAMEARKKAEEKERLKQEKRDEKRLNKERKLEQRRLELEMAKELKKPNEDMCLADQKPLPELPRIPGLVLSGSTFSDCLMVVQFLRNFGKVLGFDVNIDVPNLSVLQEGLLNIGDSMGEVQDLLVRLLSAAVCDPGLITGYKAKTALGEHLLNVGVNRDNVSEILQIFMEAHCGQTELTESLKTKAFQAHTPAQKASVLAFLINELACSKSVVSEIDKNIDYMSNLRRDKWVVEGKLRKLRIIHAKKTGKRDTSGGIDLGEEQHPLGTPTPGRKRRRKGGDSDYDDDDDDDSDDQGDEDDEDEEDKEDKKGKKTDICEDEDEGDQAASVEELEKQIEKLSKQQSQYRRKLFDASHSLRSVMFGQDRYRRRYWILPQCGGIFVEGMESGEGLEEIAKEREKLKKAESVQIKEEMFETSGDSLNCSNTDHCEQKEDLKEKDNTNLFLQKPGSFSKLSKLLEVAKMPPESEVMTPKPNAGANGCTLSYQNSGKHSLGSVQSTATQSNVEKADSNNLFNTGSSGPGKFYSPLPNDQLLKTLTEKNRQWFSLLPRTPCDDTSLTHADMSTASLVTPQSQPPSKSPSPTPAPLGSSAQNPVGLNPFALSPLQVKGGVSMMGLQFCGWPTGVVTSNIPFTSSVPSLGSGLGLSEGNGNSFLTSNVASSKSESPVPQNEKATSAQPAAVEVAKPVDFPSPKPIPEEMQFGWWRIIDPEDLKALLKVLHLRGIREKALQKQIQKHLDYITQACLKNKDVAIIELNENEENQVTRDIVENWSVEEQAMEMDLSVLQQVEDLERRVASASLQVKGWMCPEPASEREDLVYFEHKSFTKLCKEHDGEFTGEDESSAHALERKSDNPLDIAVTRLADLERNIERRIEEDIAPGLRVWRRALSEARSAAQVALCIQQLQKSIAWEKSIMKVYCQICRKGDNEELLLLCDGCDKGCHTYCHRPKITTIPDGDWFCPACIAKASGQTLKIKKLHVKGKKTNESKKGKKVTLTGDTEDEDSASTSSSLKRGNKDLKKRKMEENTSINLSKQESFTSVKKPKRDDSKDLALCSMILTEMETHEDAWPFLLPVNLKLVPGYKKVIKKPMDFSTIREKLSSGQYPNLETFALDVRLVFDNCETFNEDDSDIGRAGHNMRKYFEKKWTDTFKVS
In short: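 In this displacement format the biotinylated H3(5-23) peptide acetylated at Lys14 serves as ligand at 50 nM, with BAZ2B at 50 nM in PBS pH 7.4 containing 0.01% Tween-20. Donor and acceptor beads are 10 ug/mL final.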
Potency is the fitted concentration of half-maximal effect; tags give direction and shape of the fitted curve.

Structure (SMILES)	Potency
COc1ccc(C)cc1NC(=O)Cc1ccc(NC(=O)N2CCCCc3ccccc32)cc1	inactive
CC(C)c1ccc(Nc2c(-c3ccsc3)nc3ccc(Cl)cn23)cc1	inconclusive: 79.4 µM [inhibitor, single point]
CCN(CC)c1ccc(C(=O)N/N=C(\C)c2ccc(OC)c(OC)c2)cc1	inconclusive: 79.4 µM [inhibitor, single point]
O=C(CCl)Nc1ccc(N=Nc2ccccc2)cc1	active: 39.8 µM
CSc1ccc(C2c3[nH]c4ccccc4c3CCN2C(=O)CCC2CCCC2)cc1 (stereo not given)	inconclusive: 63.1 µM [inhibitor, partial curve, poor fit]
CCOc1ccc(NC(=O)CSC2=NN3CCCC(=O)N=C3S2)cc1	inconclusive: 70.8 µM [inhibitor, single point]
COc1ccc(Nc2nc(N)c([N+](=O)[O-])c(N3CCOCC3)n2)cc1	inconclusive: 70.8 µM [inhibitor, single point]
COc1cccc(NC(=O)Nc2cnccn2)c1	inactive
CN1C(=O)c2ccccc2C(C(=O)NCCCN2CCCC2=O)C1c1c[nH]c2ccccc12 (stereo not given)	inconclusive: 39.8 µM [inhibitor, single point]
CCC1CSC(Nc2ccc(C(=O)/C=C/c3cccc(C)c3)cc2)=N1 (stereo not given)	inconclusive: 12.6 µM [inhibitor, full curve, poor fit]
C/C(=N\Nc1ccccc1[N+](=O)[O-])c1ccccc1O	active: 2.51 µM
Cc1ccc(-c2nc(S(=O)(=O)c3ccc(C)cc3)c(N3CCCCC3)o2)cc1	inconclusive: 12.6 µM [inhibitor, full curve, poor fit]
CCc1ccccc1NC(=O)CC(NCc1ccccc1)C(=O)O (stereo not given)	inactive
Nc1nc(Nc2ccccc2F)nc(N2CCCC2)c1[N+](=O)[O-]	inconclusive: 79.4 µM [inhibitor, single point]
COc1cc(OC)cc(C(=O)Nc2c(C)nn(-c3ccccc3)c2C)c1	inconclusive: 89.1 µM [inhibitor, single point]
CCCN1C(=O)/C(=C/c2c(N3CCNC(=O)C3CC(=O)OCC)nc3c(C)cccn3c2=O)SC1=S (stereo not given)	inconclusive: 89.1 µM [inhibitor, single point]
Cn1c(=O)[nH]c(=O)c2c1nc(N/N=C/c1ccncc1)n2Cc1ccc(F)cc1	inactive
O=C(O)c1ccc(N=Nc2c(O)[nH]c3ccccc23)cc1	inconclusive: 79.4 µM [inhibitor, single point]
COc1ccccc1CNC(=O)C(=O)NCC(c1cccnc1)N1CCN(c2ccc(F)cc2)CC1 (stereo not given)	inconclusive: 89.1 µM [inhibitor, single point]
COc1ccc(N2CCN(CC(O)c3c[nH]c4ccc(OC)cc34)CC2C)cc1 (stereo not given)	inconclusive: 70.8 µM [inhibitor, single point]
Cc1cc(C)nc(N(C#N)S(=O)(=O)c2ccc(Br)cc2)n1	inconclusive: 89.1 µM [inhibitor, single point]
COc1ccc(NC(=O)N2CCN(c3cccc(C(F)(F)F)c3)CC2)cc1OC	inconclusive: 100 µM [inhibitor, single point]
O=C(NNc1ccc(C2CCCCC2)cc1)C(O)(c1ccccc1)c1cccs1 (stereo not given)	active: 50.1 µM

Structure (SMILES)	Potency
CCCC(=O)Nc1ccc(C2C(=O)c3ccccc3C2=O)cc1	inconclusive: 89.1 µM [inhibitor, single point]
O=C(/C(=C/c1ccccc1Cl)c1ccccc1)N1CCOCC1	inactive
Cc1ccc(NC(=O)CCCN2C(=O)COc3ccc(C)cc32)c(C)c1	inactive
CC(C)(Oc1ccc(Br)cc1Cl)C(=O)Nc1ccon1	inconclusive: 3.55 µM [inhibitor, single point]
Cc1ccc(/C=C/C(=O)NCc2ccccn2)o1	active: 44.7 µM
CCc1cccc(C)c1NC(=O)c1nc2ccccc2nc1N1CCCCC1	inactive
O=C(CSc1nc2ncc(Br)cc2[nH]1)c1ccc([N+](=O)[O-])cc1	inconclusive: 39.8 µM [inhibitor, partial curve]
CCc1c(C)sc(NC(=O)CN2CCN(C(=O)c3ccco3)CC2)c1C(=O)OC	inconclusive: 39.8 µM [inhibitor, partial curve]
COC(=O)c1c(C)[nH]c(O)c1C=Nc1ccc(C(C)C)cc1	active: 35.5 µM
CCOC(=O)N1CCN(C(=O)COC(=O)Cc2ccc(OC)cc2)CC1	inactive
CC(C)C1Cc2[nH]c(=O)c(C(=O)O)cc2CO1 (stereo not given)	inconclusive: 89.1 µM [inhibitor, single point]
O=C(CNc1ccc2ccccc2c1)NNC1=NCCC1	inconclusive: 89.1 µM [inhibitor, single point]
O=C1c2cccc3cccc(c23)N1Cc1cccc(F)c1	inactive
COc1ccc(OC(=O)CSc2nnc(-c3ccc(F)cc3)o2)cc1	inconclusive: 89.1 µM [inhibitor, single point]
Cc1nn(CC(=O)Nc2nc3ccccc3s2)c(C)c1[N+](=O)[O-]	inconclusive: 79.4 µM [inhibitor, single point]
Cc1ccccc1Nc1ccc2nonc2c1[N+](=O)[O-]	inconclusive: 31.6 µM [inhibitor, partial curve, poor fit]
COc1ccc(C2=Nn3c(C)nnc3SC2)cc1	inconclusive: 89.1 µM [inhibitor, single point]
CC(C)C(=O)NC(c1cccs1)c1cc([N+](=O)[O-])c2cccnc2c1O (stereo not given)	active: 5.01 µM
COc1ccccc1Nc1nc(NCC(C)C)nc(N)c1[N+](=O)[O-]	inconclusive: 22.4 µM [inhibitor, full curve, poor fit]
Cc1[nH]c2c(C)cccc2c1CCNC(=O)C1CCCCC1C(=O)OCC(F)(F)F (stereo not given)	inconclusive: 50.1 µM [inhibitor, partial curve]
CCOc1ccc(N=C/C=C/c2ccccc2)c(O)c1	active: 35.5 µM
CCOc1cc(/C=C/c2cc(C(F)(F)F)[nH]c(=O)n2)ccc1O	inconclusive: 56.2 µM [inhibitor, single point]

— PubChem BioAssay AID504333 (National Center for Advancing Translational Sciences (NCATS), 2011)
